Several values for one entry are separate records, joined by “and”; a condition that tells them apart may be missing. Identical values can stand only once. In all, about 230,000 compounds went through this assay and about 3,600 (1.6%) were called active. The inconclusive results got no clear call from the source; some entries with a clear call stand among them for comparison. The call rests on the fitted dose curve; in most records, active means well fitted inhibition curve with a large enough effect (not every such curve was filed as active); inconclusive means small, poorly fitted or top-dose-only effect, or another doubt; inactive means no such curve, though single readings can be large or run the other way. A potency beside an inconclusive call is a rough fit, not a confirmed value.
The molecules below were run against Lysine-specific demethylase 4E (Homo sapiens) (UniProt B2RXH2) (assay: qHTS Assay for Inhibitors of Human Jumonji Domain Containing 2E (JMJD2E)). Conditions: JMJD2E catalytic domain, FDH-coupled NADH fluorescence (FDH is formaldehyde dehydrogenase); series mostly up to 57.1 µM.
Chain of UniProt B2RXH2 (B2RXH2 whole entry, looked up, the tested form may be a part): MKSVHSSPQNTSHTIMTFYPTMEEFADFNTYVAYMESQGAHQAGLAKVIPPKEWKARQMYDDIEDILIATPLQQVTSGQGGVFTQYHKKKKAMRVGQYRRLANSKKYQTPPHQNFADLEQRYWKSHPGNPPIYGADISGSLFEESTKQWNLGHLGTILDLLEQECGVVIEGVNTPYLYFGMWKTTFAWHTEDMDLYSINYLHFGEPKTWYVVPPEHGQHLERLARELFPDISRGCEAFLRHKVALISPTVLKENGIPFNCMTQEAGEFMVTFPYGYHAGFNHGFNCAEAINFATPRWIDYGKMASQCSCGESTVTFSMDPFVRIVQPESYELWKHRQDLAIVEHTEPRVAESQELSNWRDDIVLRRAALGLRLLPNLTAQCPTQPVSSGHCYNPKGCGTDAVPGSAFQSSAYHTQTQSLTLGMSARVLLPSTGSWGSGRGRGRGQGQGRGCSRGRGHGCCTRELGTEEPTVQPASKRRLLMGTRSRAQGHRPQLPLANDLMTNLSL
For `COC(=O)c1c(C(C)=O)c(C)n(C)c1C`, the Potency was inconclusive: 39.8 µM [inhibitor, single point].
With `Cc1ccc(C)c2[nH]c(=O)c(C(c3nnnn3CCc3ccccc3)N3CCOCC3)cc12` (stereo not given) the Potency was inconclusive: 35.5 µM [inhibitor, single point].
In the case of `O=C(O)c1ccc(Cl)c(S(=O)(=O)Nc2ccc3[nH]c(=O)[nH]c3c2)c1`, the Potency was inconclusive: 10 µM [inhibitor, partial curve, poor fit].
In the case of `Cn1c(=O)c2[nH]c(-c3ccccc3O)nc2n(C)c1=O`, the Potency was inconclusive: 25.1 µM [inhibitor, partial curve].
In the case of `CS(=O)(=O)c1ccc2sc(NC(=O)c3cc4ccccc4o3)nc2c1`, the Potency was inconclusive: 28.2 µM [inhibitor, partial curve].
With `Cc1cc(O)c(/C=N/Nc2cccc(Cl)c2)c(=O)o1` the Potency was inconclusive: 25.1 µM [inhibitor, single point].
For `CCCC1C(c2ccco2)NC(c2ccco2)CC1(C)O` (stereo not given), the Potency was inconclusive: 25.1 µM [inhibitor, single point].
With `O=C(NCc1cccnc1)/C(=C\c1ccc(-c2cccc(Cl)c2)o1)S(=O)(=O)c1ccccc1` the Potency was “inactive”.
For `O=C(Nc1ccc(Nc2ccccc2)cc1)Nc1ccccc1Cl`, the Potency was inconclusive: 31.6 µM [inhibitor, single point].
`Cc1ccc(C=Nc2cccnc2N)cc1` was tested, and the Potency was inconclusive: 31.6 µM [inhibitor, partial curve].
For `Nc1c(C(=O)NC2CC2)c2nc3ccccc3nc2n1-c1ccc2c(c1)OCO2`, the Potency was inconclusive: 14.1 µM [inhibitor, partial curve].
For `CCCc1c(-c2ccc(O)cc2)nn(-c2ccc(O)cc2)c1-c1ccc(O)cc1`, the Potency was inconclusive: 28.2 µM [inhibitor, partial curve] and inconclusive: 31.6 µM [inhibitor, single point] and inconclusive: 39.8 µM [inhibitor, single point].
With `CCOc1ccc2[nH]c(=O)c(C(c3nnnn3C3CCCCC3)N3CCN(CC)CC3)cc2c1` (stereo not given) the Potency was inconclusive: 28.2 µM [inhibitor, partial curve].
For `O=C(O)C(S)[C@@H](S)C(=O)O` (stereo not given in full), the Potency was inconclusive: 22.4 µM [inhibitor, single point].
In the case of `O=C(c1cc(-c2cccs2)nc2ccccc12)N1CCN(S(=O)(=O)c2ccccc2)CC1`, the Potency was inconclusive: 31.6 µM [inhibitor, partial curve].
In the case of `Cc1c(N=Cc2ccncc2)c(=O)n(-c2ccccc2)n1C`, the Potency was inconclusive: 39.8 µM [inhibitor, single point].
`O=C(NCc1ccccc1)N(Cc1cc2cc3c(cc2[nH]c1=O)OCCO3)CC1CCCO1` (stereo not given) was tested, and the Potency was inconclusive: 31.6 µM [inhibitor, partial curve].
`COc1ccc2nc3c(c([Si](C)(C)C(C)(C)C)c2c1)Cn1c-3cccc1=O` was tested, and the Potency was inconclusive: 25.1 µM [inhibitor, single point].
In the case of `CCN(C(=O)c1ccc2c(OC)n(CC)nc2c1)c1ccc(OC)cc1`, the Potency was inconclusive: 28.2 µM [inhibitor, partial curve].
With `COc1cc(OC)c(OC)cc1/C=N/NC(=S)NCCN1CCOCC1` the Potency was inconclusive: 31.6 µM [inhibitor, partial curve].
For `CCN1CCN(C(C(=O)NC2CCCCC2)c2ccc(Cl)cc2)CC1` (stereo not given), the Potency was “inactive”.
`C[C@@H](C(=O)NCc1ccccn1)[C@H]1C[C@]1(C)[C@H](NC(=O)OCc1ccccc1)c1ccccc1` was tested, and the Potency was “inactive”.
In the case of `CC1CCN(CCCCOc2ccccc2[N+](=O)[O-])CC1`, the Potency was inconclusive: 31.6 µM [inhibitor, single point].
With `COC(=O)C(C)n1nnc2sc(-c3ccccc3)cc2c1=O` (stereo not given) the Potency was inconclusive: 28.2 µM [inhibitor, partial curve].
For `CCCN(CCC)S(=O)(=O)c1ccc(C(=O)Nc2nnc(COC)o2)cc1`, the Potency was inconclusive: 39.8 µM [inhibitor, single point].
For `CCOC(=O)c1c(NC(=O)C2COc3ccccc3O2)sc2c1CC(C)(C)NC2(C)C` (stereo not given), the Potency was inconclusive: 15.8 µM [inhibitor, single point].
With `CC(C)C1OC2c3cccc4cccc(c34)C2N1c1ccccc1` (stereo not given) the Potency was inconclusive: 39.8 µM [inhibitor, single point].
For `CC12CN3CC(C)(CN(C1)C3c1ccc3ccccc3c1O)C2=O` (stereo not given), the Potency was “inactive”.
In the case of `O=C(NCc1ccc(F)cc1)c1c2c(nc3ccccc13)CCN(Cc1ccccc1)C2`, the Potency was “inactive”.
For `Cc1ccc(OC(=O)c2cccc(C(=O)Oc3ccc(C)cn3)n2)nc1`, the Potency was inconclusive: 31.6 µM [inhibitor, partial curve].
For `CCCC/C(C)=N/NC(=O)Nc1ccccc1`, the Potency was “inactive”.
`Cc1onc(-c2ccccc2)c1C(=O)Nc1cccnc1` was tested, and the Potency was inconclusive: 28.2 µM [inhibitor, single point].
In the case of `O=C(CSc1nnc(CCCN2C(=O)c3cccc4cccc(c34)C2=O)n1-c1ccccc1)NCCCO`, the Potency was inconclusive: 28.2 µM [inhibitor, partial curve].
For `CN(C)CCNC(=O)c1coc(=O)c(Br)c1`, the Potency was inconclusive: 28.2 µM [inhibitor, partial curve].
`c1ccc(C(c2nnnn2C2CCCC2)N2CCCCCC2)nc1` (stereo not given) was tested, and the Potency was inconclusive: 35.5 µM [inhibitor, single point].
For `CC(=O)Nc1sc(/C(C#N)=C/c2ccc(Cl)c(Cl)c2)nc1-c1ccc(C)cc1`, the Potency was “inactive”.
With `CCS(=O)(=O)Nc1ccc(C2=NN(S(C)(=O)=O)C(c3cccs3)C2)cc1` (stereo not given) the Potency was inconclusive: 31.6 µM [inhibitor, partial curve].
For `COc1cc(OC)c(Nc2cc(C)nc3nc(C)nn23)cc1Cl`, the Potency was “inactive”.
`CCOC(=O)C1(CCc2ccccc2)CCN(Cc2ccccn2)CC1` was tested, and the Potency was “inactive”.
`Cc1cc(NC(=O)c2ccccc2Oc2ccccc2)no1` was tested, and the Potency was “inactive”.
`CCCCC(C(=O)NCCC(C)C)N(CCCN1CCOCC1)C(=O)c1snc(C(N)=O)c1N` (stereo not given) was tested, and the Potency was inconclusive: 28.2 µM [inhibitor, single point].
With `Cc1cccc(N2C(=O)C(O)=C(C(=O)c3cccs3)C2c2ccc(C(C)C)cc2)n1` (stereo not given) the Potency was inconclusive: 31.6 µM [inhibitor, single point].
For `CCCC(c1nnnn1Cc1ccc(F)cc1)N1CCN(C2CCCCC2)CC1` (stereo not given), the Potency was inconclusive: 39.8 µM [inhibitor, single point].
`Cc1ccc(S(=O)(=O)Oc2ccc(/C=C3\N=C(c4cccc(C)c4)OC3=O)cc2)cc1` was tested, and the Potency was inconclusive: 39.8 µM [inhibitor, single point].
With `O=C1CCCC2=C1C(c1ccc(O)c(O)c1)c1c(ccc3ncccc13)N2` (stereo not given) the Potency was active: 25.1 µM.
For `CCc1nc(NCc2ccc3c(c2)OCO3)c2oc3ccccc3c2n1`, the Potency was “inactive”.
With `CCN(CC)S(=O)(=O)c1ccc(C)c(NC(=O)CN(C)C)c1` the Potency was “inactive”.
For `CC(=O)C1=C(O)C(=O)N(c2nccs2)C1c1ccc(Br)cc1` (stereo not given), the Potency was inconclusive: 35.5 µM [inhibitor, single point].
With `COC(=O)CCCCCNc1ccc(C(=O)OC)cc1N` the Potency was inconclusive: 12.6 µM [inhibitor, partial curve].
`COc1ccc(N2C3=C(C(=O)CC(C)(C)C3)C(c3ccccc3OC)C3=C2CC(C)(C)CC3=O)cc1` was tested, and the Potency was inconclusive: 31.6 µM [inhibitor, partial curve].
In the case of `C/C(=N/Nc1ccc([N+](=O)[O-])cc1)c1ccc(C)cc1C`, the Potency was “inactive”.
In the case of `Fc1cccc(-c2cc3nc(-c4ccccc4)cc(N4CCC5(CC4)OCCO5)n3n2)c1`, the Potency was inconclusive: 35.5 µM [inhibitor, partial curve].
In the case of `CCNS(=O)(=O)c1ccc(-c2ccc(-n3cnnn3)cc2)cc1`, the Potency was inconclusive: 35.5 µM [inhibitor, single point].
For `CC[C@H](CC[C@H](C)[C@@H]1CC[C@@H]2[C@H]3CC=C4C[C@@H](O)CC[C@]4(C)[C@H]3CC[C@]21C)C(C)C`, the Potency was “inactive”.
For `COC(=O)c1[nH]c2ccc(F)cc2c1NC(=O)CCN1CC(C)OC(C)C1` (stereo not given), the Potency was “inactive”.
For `O=C(Cc1ncc(C(F)(F)F)cc1Cl)N1CCN(c2ccccn2)CC1`, the Potency was inconclusive: 28.2 µM [inhibitor, single point].
For `N#Cc1c(C(F)(F)F)cc(-c2ccccc2Cl)[nH]c1=O`, the Potency was inconclusive: 28.2 µM [inhibitor, partial curve].
For `Cc1ccc2cc(CN(CC3CCCO3)S(=O)(=O)c3ccccc3)c3nnnn3c2c1` (stereo not given), the Potency was “inactive”.
With `CCCOc1ccc(-c2nn(-c3ccccc3)cc2/C=C2\SC(N)=NC2=O)cc1` the Potency was inconclusive: 39.8 µM [inhibitor, single point].
With `CC(C)NC(=O)/C(C#N)=C/c1ccc(N(C)C)o1` the Potency was “inactive”.
For `CC1CCN(c2ccc(/C=N\Nc3nncn3N)cc2[N+](=O)[O-])CC1`, the Potency was inconclusive: 1.58 µM [inhibitor, full curve, poor fit].
`COc1cc(-c2ccc(Nc3ccccc3C(=O)O)c(OC)c2)ccc1Nc1ccccc1C(=O)O` was tested, and the Potency was inconclusive: 39.8 µM [inhibitor, single point].
For `COC(=O)[C@@]1(Cc2ccc(F)cc2)[C@H]2c3cc(C(=O)N(C)C)n(C)c3C[C@H]2CN1C(=O)c1ccccc1`, the Potency was inconclusive: 39.8 µM [inhibitor, single point].
For `CCCC(=O)Nc1ccc(-c2nc3cc(C)ccc3o2)cc1`, the Potency was inconclusive: 31.6 µM [inhibitor, partial curve].
`CCCCN(Cc1cc2ccccc2[nH]c1=O)S(C)(=O)=O` was tested, and the Potency was inconclusive: 39.8 µM [inhibitor, single point].

Source: PubChem BioAssay AID2147 (National Center for Advancing Translational Sciences (NCATS), 2009)
Further: nearly all actives have a fitted effect of over 50% in size.
Potency means the concentration at half of the fitted maximal effect; tags describe the fitted curve by direction and shape.
